# Laboratory results: the supplement of paper PMC8728848
# Some of the results follow.
# Tests used:
# Test in all cases: glycan array binding signal (z-score within array); higher = stronger binding
# Settings in all cases: glycan notation: IUPAC condensed, linker removed
# [1] = biological target: Neu5Ac(a2-3)Gal(b1-3)GalNAc
# In short: (§1)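 Glycan array binding is given as a within-array Z-score, which can be read as non-binding when negative. The arrays, 3228 of them, came from the Consortium for Functional Glycomics database and were retained only where the protein sequence was available. Z-scores were averaged across arrays of the same protein sequence at different concentrations or buffers and across linkers.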
# [2] = biological target: Neu5Ac(a2-3)Gal(b1-3)GalNAc(b1-3)Gal(a1-4)Gal(b1-4)Glc
# In short: as §1
# [3] = biological target: Neu5Ac(a2-3)Gal(b1-3)GalNAc(b1-4)[Neu5Ac(a2-3)]Gal(b1-4)Glc
# In short: as §1
# [4] = biological target: Neu5Ac(a2-3)Gal(b1-3)GalNAc(b1-4)[Neu5Ac(a2-8)Neu5Ac(a2-3)]Gal(b1-4)Glc
# In short: as §1
# [5] = biological target: Neu5Ac(a2-3)Gal(b1-3)GalNAc6S
# In short: as §1
# [6] = biological target: Neu5Ac(a2-3)Gal(b1-3)GlcNAc
# In short: as §1
# [7] = biological target: Neu5Ac(a2-3)Gal(b1-3)GlcNAc(b1-2)Man
# In short: as §1
# [8] = biological target: Neu5Ac(a2-3)Gal(b1-3)GlcNAc(b1-2)Man(a1-3)[GlcNAc(b1-4)][Neu5Ac(a2-3)Gal(b1-3)GlcNAc(b1-2)Man(a1-6)]Man(b1-4)GlcNAc(b1-4)GlcNAc
# In short: as §1
# [9] = biological target: Neu5Ac(a2-3)Gal(b1-3)GlcNAc(b1-2)Man(a1-3)[Neu5Ac(a2-3)Gal(b1-3)GlcNAc(b1-2)Man(a1-6)]Man(b1-4)GlcNAc(b1-4)GlcNAc
# In short: as §1
# [10] = biological target: Neu5Ac(a2-3)Gal(b1-3)GlcNAc(b1-3)Gal(b1-3)GlcNAc
# In short: as §1
# [11] = biological target: Neu5Ac(a2-3)Gal(b1-3)GlcNAc(b1-3)Gal(b1-4)GlcNAc
# In short: as §1
# [12] = biological target: Neu5Ac(a2-3)Gal(b1-3)GlcNAc(b1-3)GalNAc
# In short: as §1
# [13] = biological target: Neu5Ac(a2-3)Gal(b1-3)GlcNAc(b1-4)Gal(b1-4)Glc
# In short: as §1
# [14] = biological target: Neu5Ac(a2-3)Gal(b1-3)GlcNAc(b1-6)GalNAc
# In short: as §1
# [15] = biological target: Neu5Ac(a2-3)Gal(b1-3)GlcNAc6S
# In short: as §1
# [16] = biological target: Neu5Ac(a2-3)Gal(b1-3)[Fuc(a1-4)]GlcNAc
# In short: as §1
# [17] = biological target: Neu5Ac(a2-3)Gal(b1-3)[Fuc(a1-4)]GlcNAc(b1-3)Gal(b1-3)[Fuc(a1-4)]GlcNAc
# In short: as §1
# [18] = biological target: Neu5Ac(a2-3)Gal(b1-3)[Fuc(a1-4)]GlcNAc(b1-3)Gal(b1-4)[Fuc(a1-3)]GlcNAc
# In short: as §1
# [19] = biological target: Neu5Ac(a2-3)Gal(b1-3)[GlcNAc(b1-6)]GalNAc
# In short: as §1
# [20] = biological target: Neu5Ac(a2-3)Gal(b1-3)[Neu5Ac(a2-6)]GalNAc
# In short: as §1
# [21] = biological target: Neu5Ac(a2-3)Gal(b1-3)[Neu5Ac(a2-6)]GlcNAc(b1-3)[Fuc(a1-3)[Gal(b1-4)]GlcNAc(b1-6)]Gal(b1-4)Glc
# In short: as §1
# [22] = biological target: Neu5Ac(a2-3)Gal(b1-3)]Neu5Ac(a2-3)Gal(b1-4)]GlcNAc
# In short: as §1
# Neu5Ac(a2-3)Gal(b1-4)Glc = biological target: Neu5Ac(a2-3)Gal(b1-4)Glc
# In short: as §1
# [23] = biological target: Neu5Ac(a2-3)Gal(b1-4)GlcNAc
# In short: as §1
# [24] = biological target: Neu5Ac(a2-3)Gal(b1-4)GlcNAc(b1-2)Man
# In short: as §1
# [25] = biological target: Neu5Ac(a2-3)Gal(b1-4)GlcNAc(b1-2)Man(a1-3)[GlcNAc(b1-4)][Neu5Ac(a2-3)Gal(b1-4)GlcNAc(b1-2)Man(a1-6)]Man(b1-4)GlcNAc(b1-4)GlcNAc
# In short: as §1
# [26] = biological target: Neu5Ac(a2-3)Gal(b1-4)GlcNAc(b1-2)Man(a1-3)[Neu5Ac(a2-3)Gal(b1-4)GlcNAc(b1-2)Man(a1-6)]Man(b1-4)GlcNAc(b1-4)GlcNAc
# In short: as §1
# [27] = biological target: Neu5Ac(a2-3)Gal(b1-4)GlcNAc(b1-2)Man(a1-3)[Neu5Ac(a2-3)Gal(b1-4)GlcNAc(b1-2)Man(a1-6)]Man(b1-4)GlcNAc(b1-4)[Fuc(a1-6)]GlcNAc
# In short: as §1
# [28] = biological target: Neu5Ac(a2-3)Gal(b1-4)GlcNAc(b1-2)Man(a1-3)[Neu5Ac(a2-6)Gal(b1-4)GlcNAc(b1-2)Man(a1-6)]Man(b1-4)GlcNAc(b1-4)GlcNAc
# In short: as §1
# [29] = biological target: Neu5Ac(a2-3)Gal(b1-4)GlcNAc(b1-2)[Neu5Ac(a2-3)Gal(b1-4)GlcNAc(b1-4)]Man(a1-3)[GlcNAc(b1-4)][Neu5Ac(a2-3)Gal(b1-4)GlcNAc(b1-2)[Neu5Ac(a2-3)Gal(b1-4)GlcNAc(b1-6)]Man(a1-6)]Man(b1-4)GlcNAc(b1-4)GlcNAc
# In short: as §1
# [30] = biological target: Neu5Ac(a2-3)Gal(b1-4)GlcNAc(b1-2)[Neu5Ac(a2-3)Gal(b1-4)GlcNAc(b1-4)]Man(a1-3)[GlcNAc(b1-4)][Neu5Ac(a2-3)Gal(b1-4)GlcNAc(b1-4)Man(a1-6)]Man(b1-4)GlcNAc(b1-4)GlcNAc
# In short: as §1
# [31] = biological target: Neu5Ac(a2-3)Gal(b1-4)GlcNAc(b1-2)[Neu5Ac(a2-3)Gal(b1-4)GlcNAc(b1-6)]Man(a1-6)[Neu5Ac(a2-3)Gal(b1-4)GlcNAc(b1-2)Man(a1-3)]Man(b1-4)GlcNAc(b1-4)GlcNAc
# In short: as §1
# [32] = biological target: Neu5Ac(a2-3)Gal(b1-4)GlcNAc(b1-2)[Neu5Ac(a2-3)Gal(b1-4)GlcNAc(b1-6)]Man(a1-6)[Neu5Ac(a2-3)Gal(b1-4)GlcNAc(b1-2)Man(a1-3)][GlcNAc(b1-4)]Man(b1-4)GlcNAc(b1-4)GlcNAc
# In short: as §1
# [33] = biological target: Neu5Ac(a2-3)Gal(b1-4)GlcNAc(b1-3)Gal
# In short: as §1
# [34] = biological target: Neu5Ac(a2-3)Gal(b1-4)GlcNAc(b1-3)Gal(b1-3)GlcNAc
# In short: as §1
# [35] = biological target: Neu5Ac(a2-3)Gal(b1-4)GlcNAc(b1-3)Gal(b1-4)GlcNAc
# In short: as §1
# [36] = biological target: Neu5Ac(a2-3)Gal(b1-4)GlcNAc(b1-3)Gal(b1-4)GlcNAc(b1-2)Man(a1-3)[Neu5Ac(a2-3)Gal(b1-4)GlcNAc(b1-3)Gal(b1-4)GlcNAc(b1-2)Man(a1-6)]Man(b1-4)GlcNAc(b1-4)GlcNAc
# In short: as §1
# [37] = biological target: Neu5Ac(a2-3)Gal(b1-4)GlcNAc(b1-3)Gal(b1-4)GlcNAc(b1-3)Gal(b1-4)GlcNAc
# In short: as §1
# [38] = biological target: Neu5Ac(a2-3)Gal(b1-4)GlcNAc(b1-3)Gal(b1-4)GlcNAc(b1-3)Gal(b1-4)GlcNAc(b1-2)Man(a1-3)[Neu5Ac(a2-3)Gal(b1-4)GlcNAc(b1-3)Gal(b1-4)GlcNAc(b1-3)Gal(b1-4)GlcNAc(b1-2)Man(a1-6)]GalNAc
# In short: as §1
# [39] = biological target: Neu5Ac(a2-3)Gal(b1-4)GlcNAc(b1-3)Gal(b1-4)GlcNAc(b1-3)GalNAc
# In short: as §1
# [40] = biological target: Neu5Ac(a2-3)Gal(b1-4)GlcNAc(b1-3)Gal(b1-4)GlcNAc(b1-3)[Neu5Ac(a2-3)Gal(b1-4)GlcNAc(b1-3)Gal(b1-4)GlcNAc(b1-6)]GalNAc
# In short: as §1
# [41] = biological target: Neu5Ac(a2-3)Gal(b1-4)GlcNAc(b1-3)Gal(b1-4)GlcNAc(b1-6)[Gal(b1-3)]GalNAc
# In short: as §1
# [42] = biological target: Neu5Ac(a2-3)Gal(b1-4)GlcNAc(b1-3)Gal(b1-4)[Fuc(a1-3)]GlcNAc
# In short: as §1
# [43] = biological target: Neu5Ac(a2-3)Gal(b1-4)GlcNAc(b1-3)GalNAc
# In short: as §1
# [44] = biological target: Neu5Ac(a2-3)Gal(b1-4)GlcNAc(b1-3)[Neu5Ac(a2-3)Gal(b1-4)GlcNAc(b1-6)]GalNAc
# In short: as §1
binder,measurement,setting,value
"MPA (Maclura pomifera), P18674 (protein) GVTFDDGAYTGIREINFEYNSETAIGGLRVTYDLNGMPFVAEDHKSFITGFKPVKISLEFPSEYIVEVSGYVGKVEGYTVIRSLTFKTNKQTYGPYGVTNGTPFSLPIENGLIVGFKGSIGYWLDYFSIYLSL",glycan array binding signal (z-score),[1],-0.313
same,glycan array binding signal (z-score),[2],-0.249
same,glycan array binding signal (z-score),[3],-0.301
same,glycan array binding signal (z-score),[4],-0.179
same,glycan array binding signal (z-score),[5],-0.265
same,glycan array binding signal (z-score),[6],-0.242
same,glycan array binding signal (z-score),[7],1.21
same,glycan array binding signal (z-score),[8],-0.221
same,glycan array binding signal (z-score),[9],0.387
same,glycan array binding signal (z-score),[10],-0.121
same,glycan array binding signal (z-score),[11],-0.339
same,glycan array binding signal (z-score),[12],-0.213
same,glycan array binding signal (z-score),[13],-0.183
same,glycan array binding signal (z-score),[14],-0.227
same,glycan array binding signal (z-score),[15],-0.098
same,glycan array binding signal (z-score),[16],-0.234
same,glycan array binding signal (z-score),[17],-0.121
same,glycan array binding signal (z-score),[18],-0.08
same,glycan array binding signal (z-score),[19],-0.297
same,glycan array binding signal (z-score),[20],0.304
same,glycan array binding signal (z-score),[21],-0.233
same,glycan array binding signal (z-score),[22],-0.167
same,glycan array binding signal (z-score),Neu5Ac(a2-3)Gal(b1-4)Glc,-0.064
same,glycan array binding signal (z-score),[23],-0.212
same,glycan array binding signal (z-score),[24],-0.076
same,glycan array binding signal (z-score),[25],-0.414
same,glycan array binding signal (z-score),[26],-0.136
same,glycan array binding signal (z-score),[27],-0.25
same,glycan array binding signal (z-score),[28],-0.284
same,glycan array binding signal (z-score),[29],-0.101
same,glycan array binding signal (z-score),[30],-0.281
same,glycan array binding signal (z-score),[31],-0.223
same,glycan array binding signal (z-score),[32],-0.334
same,glycan array binding signal (z-score),[33],-0.379
same,glycan array binding signal (z-score),[34],-0.323
same,glycan array binding signal (z-score),[35],-0.214
same,glycan array binding signal (z-score),[36],1.94
same,glycan array binding signal (z-score),[37],-0.222
same,glycan array binding signal (z-score),[38],3.56
same,glycan array binding signal (z-score),[39],-0.253
same,glycan array binding signal (z-score),[40],0.253
same,glycan array binding signal (z-score),[41],-0.045
same,glycan array binding signal (z-score),[42],-0.193
same,glycan array binding signal (z-score),[43],-0.215
same,glycan array binding signal (z-score),[44],-0.249
